Data taken from paper PMC4336329 (PLoS ONE, 2015).
In all, about 310,000 compounds went through this assay and about 14,000 (4.5%) showed an effect of 50% or more. Effects have a minus sign here. The list shows a part of the results.

Biological target: human ether-à-go-go-related gene (hERG) potassium channel (human, UniProt Q12809)
Assay: primary screen, population patch clamp on CHO cells stably expressing hERG
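Further: peak tail current of the secondary pulse compared with the same well before compound.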

Chain of human ether-à-go-go-related gene (hERG) potassium channel (Q12809 whole entry, looked up): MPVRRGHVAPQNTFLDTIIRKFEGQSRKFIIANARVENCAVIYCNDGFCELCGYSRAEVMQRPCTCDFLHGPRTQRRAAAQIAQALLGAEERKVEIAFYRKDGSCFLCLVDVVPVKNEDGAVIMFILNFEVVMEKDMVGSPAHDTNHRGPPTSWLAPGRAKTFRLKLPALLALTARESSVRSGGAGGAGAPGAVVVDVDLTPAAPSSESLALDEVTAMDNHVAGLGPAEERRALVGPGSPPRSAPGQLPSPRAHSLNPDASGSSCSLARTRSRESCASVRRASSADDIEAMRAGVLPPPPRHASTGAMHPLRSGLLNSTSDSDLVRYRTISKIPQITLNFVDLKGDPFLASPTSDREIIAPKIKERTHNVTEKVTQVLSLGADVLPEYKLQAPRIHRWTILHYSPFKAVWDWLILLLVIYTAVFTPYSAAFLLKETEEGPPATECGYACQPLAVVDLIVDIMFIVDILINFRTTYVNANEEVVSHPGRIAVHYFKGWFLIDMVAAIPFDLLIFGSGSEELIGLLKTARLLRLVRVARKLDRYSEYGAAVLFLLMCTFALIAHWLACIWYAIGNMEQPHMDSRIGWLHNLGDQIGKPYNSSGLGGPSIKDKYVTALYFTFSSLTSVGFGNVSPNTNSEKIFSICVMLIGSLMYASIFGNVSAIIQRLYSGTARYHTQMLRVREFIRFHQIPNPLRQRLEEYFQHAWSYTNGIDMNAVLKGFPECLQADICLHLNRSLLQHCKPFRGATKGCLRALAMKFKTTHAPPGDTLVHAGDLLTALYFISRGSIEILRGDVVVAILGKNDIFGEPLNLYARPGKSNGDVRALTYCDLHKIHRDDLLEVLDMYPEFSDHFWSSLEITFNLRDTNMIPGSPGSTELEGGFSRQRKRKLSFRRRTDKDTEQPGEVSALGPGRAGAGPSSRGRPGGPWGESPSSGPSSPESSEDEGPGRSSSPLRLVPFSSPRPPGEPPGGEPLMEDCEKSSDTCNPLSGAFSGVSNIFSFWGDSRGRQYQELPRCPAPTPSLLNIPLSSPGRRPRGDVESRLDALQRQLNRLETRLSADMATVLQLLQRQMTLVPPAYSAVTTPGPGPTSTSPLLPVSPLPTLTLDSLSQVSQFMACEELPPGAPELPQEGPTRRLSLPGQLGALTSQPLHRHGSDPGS

Row | Structure (SMILES) | hERG current change (%, negative = inhibition) at 10uM [%]
1 | CCN(CC)CCCN(Cc1cc2cc3c(cc2[nH]c1=O)OCO3)C(=O)Nc1ccccc1OC | -10.6
2 | CC(=O)c1cc2c(cc1NC(=O)CN1CCC(Cc3ccccc3)CC1)OCO2 | 4.54
3 | COc1cc(S(=O)(=O)N(C)C)ccc1Br | 1.52
4 | CSc1ccccc1C(=O)NCCCn1ccnc1 | 18.2
5 | CCCOc1ccc(C2C(C(=O)c3cc4ccccc4o3)=C(O)C(=O)N2c2cc(C)on2)cc1OC (stereo not shown) | 25.3
6 | CN(C)S(=O)(=O)c1ccc(NC(=O)N2CCN(c3ccccc3Cl)CC2)cc1 | 10.1
7 | CCOC(=O)c1sc(-c2ccc(F)cc2)cc1N | 2
8 | O=C(CNC(=O)c1ccco1)OCN1C(=O)c2ccccc2C1=O | 12.3
9 | COc1ccccc1CNC(=O)CSc1nnc2c(n1)[nH]c1ccc(F)cc12 | -44
10 | COCCNC(=O)c1c(N)n(/N=C/c2cccs2)c2nc3ccccc3nc12 | -1.97
11 | COCCN(CCOC)C(=O)CC(=O)N(CCOC)CCOC | 14.4
12 | NS(=O)(=O)c1ccc(CCNC(=O)COC(=O)Cc2c(F)cccc2Cl)cc1 | 13.5
13 | Fc1ccccc1-c1ccc(/C=N/Nc2nc3ccccc3[nH]2)o1 | -7.27
14 | COC(=O)Cn1cnc2c(C#N)c3n(c2c1=O)CCCCC3 | -8.01
15 | Cc1ccc(OCC(=O)N/N=C2\CC(=O)CC(C)(C)C2)c(Br)c1 | -9.33
16 | COC(=O)NCC(c1ccco1)N1CCN(c2ccc(OC)cc2)CC1 (stereo not shown) | 7.52
17 | O=C(CSc1nnc(-c2n[nH]c3ccccc23)n1-c1ccccc1)Nc1cccc(Cl)c1 | -3.41
18 | COc1ccccc1/C=N/NC(=O)c1ccc(=O)n(C)c1 | 14.1
19 | O=C(CCC(=O)Nc1nnc(C2CCCCC2)s1)NCC1CCCO1 (stereo not shown) | 12.9
20 | Cc1nn(Cc2ccc(Cl)c(Cl)c2)c(C)c1NC(=O)c1cn(-c2ccccc2)nc1-c1ccccc1 | 3.3
21 | Cc1ccc(-n2c(-c3nn(C)cc3Cl)n[nH]c2=S)cc1 | 44.5
22 | Cc1cccc(N=C2NC(=O)/C(=C/c3cccnc3)S2)c1C | 1.97

Row | Structure (SMILES) | hERG current change (%, negative = inhibition) at 10uM [%]
23 | O=C(CN(C(=O)c1csnn1)c1ccccc1)NCc1ccc2c(c1)OCO2 | -36.6
24 | NC(=O)CC(NC(=O)c1ccccc1)c1ccc(NC2CCCCCCC2)c([N+](=O)[O-])c1 (stereo not shown) | 13.8
25 | CCN(c1ccccc1)S(=O)(=O)c1ccc(C(=O)NCCCn2ccnc2)cc1 | 10.5
26 | CCCCN(CC)CCCNC(=O)Cn1nc(Cc2ccncc2)c2ccccc2c1=O | -11.1
27 | COc1ccc(NC(=O)CN(C)C(=O)CCCNC(=O)c2ccc(Cl)cc2)cc1 | -30.8
28 | COc1ccc(NC(=O)c2ccc(NC(=O)CSc3nc(N)cc(=O)[nH]3)cc2)cc1 | 11.9
29 | O=C(Nc1nnc(-c2cc(Cl)ccc2Cl)o1)c1ccco1 | -36.1
30 | CCOC(=O)C1=C(C)Nc2sc(C(=O)c3ccc(F)cc3)c(N)c2C1c1ccc(C(=O)OC)cc1 (stereo not shown) | 12.6
31 | CCc1nn(C(C)C(=O)NC(C)CCc2ccco2)c(=O)c2cc3occc3n12 (stereo not shown) | -34.8
32 | COCCN(C(=O)COC(=O)c1oc2ccc(OC)cc2c1C)c1c(N)n(Cc2ccccc2)c(=O)[nH]c1=O | -7.79
33 | C/C(=N\NS(=O)(=O)c1ccc(C)c([N+](=O)[O-])c1)c1cccs1 | 13.8
34 | CCCCNS(=O)(=O)c1ccc2nc(-c3cccnc3)cc(C(=O)NCCCOCC)c2c1 | -3.7
35 | CCC(=O)Nc1ccc(C(=O)N/N=C/c2c(C)[nH]c3ccccc23)cc1 | 17.1
36 | CNC(=O)COc1ccc(-c2nn(C)c(=O)c3ccccc23)cc1 | 9.65
37 | CCOc1ccc(CN2CCN(CCCn3cccn3)CC2CCO)cc1 (stereo not shown) | -80.1
38 | CCOC(=O)c1nc(NNC(C)=O)sc1C | 12
39 | CC1CN(C(=S)Nc2ccccc2)N(c2ccccc2)C1 (stereo not shown) | 3.77
40 | C/C(=N\Nc1ccc([N+](=O)[O-])cc1)c1cccc(N)c1 | -22.9
41 | CCOC(=O)CCC(=O)Nc1cccc([N+](=O)[O-])c1 | -2.79
42 | Cc1ccnc(NS(=O)(=O)c2ccc(NC(=O)CC(C)c3ccccc3)cc2)n1 (stereo not shown) | 20.7
43 | CC(C)n1nc(C(=O)OCC(=O)N(C)C2CCS(=O)(=O)C2)c2ccccc2c1=O (stereo not shown) | 5.75
44 | Cl.Cn1nnc(C(O)CNCc2cccs2)n1 (stereo not shown) | 9.06

Row | Structure (SMILES) | hERG current change (%, negative = inhibition) at 10uM [%]
45 | O=C(CCc1cn2ccccc2n1)NC1CCCc2c1cnn2-c1ccccc1F (stereo not shown) | 0.178
46 | CCc1ccc(OCC(=O)NC(=S)Nc2ccc(C)cc2C)c(Br)c1 | 7.39
47 | Cc1cc(C(=O)CSc2nnc(-c3ccccc3)n2C)c(C)n1C | -22.5
48 | CC(=O)c1cccc(NC(=O)Nc2cc3sccc3n2C)c1 | 5.42
49 | O=C(Nc1ccc(OCc2ccccc2)cc1)c1cccs1 | 13.7
50 | OCCOCCOCCn1c2ccccc2c2ccccc21 | -2.67
51 | Cc1ccc(C(C(=O)NC2CCCC2)N(C(=O)c2csnn2)C2CC2)cc1 (stereo not shown) | -1.48
52 | CSc1nc2sc3c(c2c(=O)[nH]1)CCC3 | 8.02
53 | Cc1cc(C)c(OCCOCCN2CCCC2)c(C)c1 | -20.2
54 | CCOC(=O)c1ccc(NC(=O)Nc2ncccc2C)cc1 | -5.35
55 | O=C(O)COCC(=O)Nc1ccc(-n2cnnn2)cc1 | 17.2
56 | CCOC(=O)c1c(C)sc2c1N(C(=O)CN(CC)CC)c1cc(Cl)ccc1S2 | -21
57 | Cc1no[n+]([O-])c1COc1ccc(/C=C(\C#N)C(N)=O)cc1 | -35.4
58 | O=[N+]([O-])c1cccnc1Oc1ccc(C2SCCS2)cc1 | 5.72
59 | CC(c1ccccc1)C(CC(=O)O)C(=O)NC1CCCCC1 (stereo not shown) | 24
60 | COc1ccc(C(=O)NNC(=O)CN2CCC(n3nnc4cc(C)ccc43)CC2)cc1 | -15
61 | O=C(NCc1ccco1)c1ccc2c(c1)N(Cc1ccccc1)C(=O)CS2=O (stereo not shown) | -0.828
62 | CCCc1ccc(OC(=O)c2ccc(O)cc2Cl)cc1 | -1.26
63 | Cc1ccc(C)c(NC(=O)c2oc(=O)c3ccccc3c2-c2ccccc2)c1 | -16.4
64 | C=CCn1c(CCNC(=O)c2cccs2)n[nH]c1=S | 2.16
65 | Cc1ccc(C)c(N(C(=O)c2ccco2)C(C(=O)NC2CCCC2)c2ccco2)c1 (stereo not shown) | 2.25
66 | NC(=O)c1ccc(NC(=O)CCc2nc3sc4c(c3c(=O)[nH]2)CCCC4)cc1 | 6.99

Row | Structure (SMILES) | hERG current change (%, negative = inhibition) at 10uM [%]
67 | Cc1ccc(S(=O)(=O)Nc2nc3ccccc3nc2NCC2CCCO2)cc1 (stereo not shown) | 2.28
68 | CN(CC(=O)Nc1ccc(S(=O)(=O)N2CCCC2)cc1)Cc1c(F)cccc1Cl | -7.41
69 | c1ccc(CCOn2ccnc2)cc1 | 11.7
70 | CCCNc1c(NC(=O)C2CCC(C)CC2)c(=O)oc2ccccc12 (stereo not shown) | 8.35
71 | CCOc1ccc(CNC(=O)CCSCc2ccccc2F)cc1OC | 5.18
72 | Cc1ccc(S(=O)(=O)CCC(=O)OC(C)C(=O)c2c(C)[nH]c3ccccc23)cc1 (stereo not shown) | 3.68
73 | OCCC1CN(Cc2cnc(N3CCCC3)s2)CCN1C1CCCC1 (stereo not shown) | -7.38
74 | CCN(CC)c1ccc(/C=C2\C(=O)NC(=O)N(Cc3ccco3)C2=O)cc1 | -4.07
75 | O=C(NCCOc1ccccc1)C(c1ccccc1)c1ccccc1 | 4.64
76 | Cc1[nH]cnc1C(=O)N/N=C/c1c(Cl)cccc1Cl | 10.1
77 | Cc1noc(C)c1C(=O)N1CCN(c2cccc(Cl)c2)CC1 | -3.58
78 | O=C(Nc1ccc(NC(=O)c2cccs2)cc1)c1cccnc1 | 21.9
79 | O=C(NC1CC2CCCC(C1)N2C(=O)NCc1ccccc1)C1CC1 (stereo not shown) | 4.22
80 | COc1ccc(C(=O)NCc2ccc(N3CCN(C(=O)OC(C)(C)C)CC3)cc2)cc1 | -12.7
81 | CCOC(=O)C1=C(C)N=c2s/c(=C/c3ccc(OCC(=O)O)cc3)c(=O)n2C1c1ccc(SC)cc1 (stereo not shown) | 20.8
82 | N#Cc1c(NC(=S)NC(=O)c2ccccc2)sc2c1CCCC2 | 11.7
83 | Cc1ccc(-n2cc(CNCCc3ncc(C)[nH]3)c(-c3ccc(F)cc3)n2)cc1 | -47.4
84 | COc1nn(C(C)C(=O)N2N=C(C(F)F)CC2(O)C(F)F)cc1[N+](=O)[O-] (stereo not shown) | 0.291
85 | Cc1ccc(NC(=O)CSc2nnc(CN3CCOCC3)n2C)cc1C | -1.39
86 | Cc1cc(NO)c(C(C)C)cc1N=O | -2.87
87 | COc1ccc(NC(=O)NC23CC4(C)CC(C)(CC(C)(C4)C2)C3)cc1 | -25.7
88 | CC1=C(C(=O)N(C)Cc2ccccc2)C2(CCC(C)CC2)OC1=O (stereo not shown) | -4.71
